In PubChem BioAssay AID1346428 (National Center for Advancing Translational Sciences (NCATS), 2018):
Among all 48,000 compounds or so, about 1,200 (2.5%) were called active. Inconclusive results (about 2%) are left out.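 Rule for the calls: active = activation of at least 60% and not above a set upper limit (about 1 call in 100 departs from these limits); inconclusive = activation of 40% to 60%, or above that upper limit; inactive = activation under 40%.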 This is one part of the list.

target: Probable G-protein coupled receptor 32 (Homo sapiens) (UniProt O75388); test: qHTS for Agonists of Human Resolvin D1 Receptor DRV1; conditions: CHO-K1 GPR32 beta-arrestin PathHunter luminescence, 90 min; at 76.9 µM; stronger effect = higher value; zero percent set by DMSO-only wells; note: 0% is about no effect
How it was run: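 Step 1: seed CHO-K1 GPR32 beta-arrestin cells, 2,500/well, overnight at 37 °C. Step 2: add compounds, 90 min at 37 °C. Step 3: detection reagent, 1 h ambient, then luminescence.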

UniProt O75388, sequence (O75388 whole entry, looked up): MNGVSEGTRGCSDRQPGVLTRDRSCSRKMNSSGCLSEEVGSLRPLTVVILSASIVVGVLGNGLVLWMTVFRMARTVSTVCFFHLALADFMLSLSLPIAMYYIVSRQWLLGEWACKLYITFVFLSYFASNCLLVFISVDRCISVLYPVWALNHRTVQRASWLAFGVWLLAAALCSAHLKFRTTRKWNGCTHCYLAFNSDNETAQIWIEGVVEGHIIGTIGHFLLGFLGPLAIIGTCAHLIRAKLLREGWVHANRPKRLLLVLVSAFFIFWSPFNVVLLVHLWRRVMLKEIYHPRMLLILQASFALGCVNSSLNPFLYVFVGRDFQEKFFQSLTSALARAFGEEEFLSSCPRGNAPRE

| Structure (SMILES) | activation |
| --- | --- |
| CC(C)OCCCNC(=O)Cn1c(-c2cccs2)cc2cc(F)ccc21 | inactive: 16.3% |
| COc1ccc(N2CCN(CCCNC(=O)c3sc4ncccc4c3-n3cccc3)CC2)cc1 | inactive: -14.9% |
| CCN(C(=O)c1nn(C)c2c1CSc1ccccc1-2)c1cccc(C)c1 | inactive: -12% |
| COc1ccc(NC(=O)Cn2nc(C)c3c(C)n(-c4ccccc4)nc3c2=O)cc1OC | inactive: -7.49% |
| COc1cc(C(=O)OCc2cc(=O)n3ccsc3n2)cc(OC)c1OC | inactive: 6.08% |
| CCCCCCCCCCCCCCCC(=O)OC(C)C | inactive: -2.22% |
| COc1ccc(S(=O)(=O)NCC(c2ccco2)S(=O)(=O)c2cccs2)cc1OC (centres undefined) | inactive: -20.9% |
| CCOc1cc(-c2cc(C(=O)O)c3c(-c4ccccc4)[nH]nc3n2)ccc1O | inactive: -23.9% |
| NNCCc1ccccc1 | inactive: 1.11% |
| Cc1c(Cl)cccc1NC(=O)CCS(=O)(=O)c1cccc2nsnc12 | inactive: 3.12% |
| COc1ccc(OC)c(S(=O)(=O)NCCc2sc(C)nc2C)c1 | inactive: -4.94% |
| CCCCNC(=O)c1ccc(-c2nc(CN3CCc4ccccc43)c(C)o2)cc1 | inactive: -6.48% |
| Cc1ccc(CNC(=O)CCN2C(=O)C(C)Oc3ccc(C)cc32)cc1 (centres undefined) | inactive: 23.9% |
| CCc1ccc(-c2nc3cc(NC(=O)c4ccc(F)cc4)ccc3o2)cc1 | inactive: 21.6% |
| Cc1ccc(Nc2c3c(nc4ccccc24)CCC3)cc1F | inactive: -24.4% |
| Cc1cccc(COc2ccc(-c3cc(C(F)(F)F)n4nc(C)cc4n3)cc2)c1 | inactive: 18.6% |
| Cc1cn2c(=O)cc(COC(=O)COc3ccc(F)cc3)nc2s1 | inactive: 8.8% |
| COc1cccc(-c2nn(C)c3sc(C(=O)N4CCN(c5cccc(C(F)(F)F)c5)CC4)cc23)c1 | inactive: -0.7% |
| COc1ccccc1N(CC(=O)NCCSc1ccccc1)S(=O)(=O)c1ccc(C)cc1 | inactive: -24.3% |
| Cc1ccc(NC(=O)CCNS(=O)(=O)c2cccs2)cc1F | inactive: 16.1% |
| COc1cccc(CCNC(=O)c2cnc3sc(N4CCCC4)nn3c2=O)c1 | inactive: -2.31% |

| Structure (SMILES) | activation |
| --- | --- |
| Cc1cccc(-n2c3nc(=O)n(C)c(=O)c-3cc3c(C)nn(-c4ccccc4)c32)c1C | inactive: -3.16% |
| COc1ccc(-n2c(=O)c3c(c4cc(OC)ccc4n3C)n(Cc3c(F)cccc3Cl)c2=O)cc1 | inactive: -4.45% |
| CSc1ncc2c(n1)-c1ccccc1N(Cc1ccccc1C)S2(=O)=O | inactive: 42.3% |
| COC1(C(F)(F)F)NC(=O)N(c2ccc(F)cc2)C1=O (centres undefined) | inactive: -9.25% |
| CCOC(=O)C1=C(CN(CC)Cc2ccccc2)NC(=O)NC1c1ccc(Cl)cc1 (centres undefined) | inactive: -12.1% |
| COc1ccc(NC(=O)N2CCC(n3c(C)nc4cccnc43)CC2)cc1OC | inactive: -16.3% |
| Cc1ccc(OCCSc2nc3ccc(NC(=O)COc4ccc(C)cc4)cc3s2)cc1 | inactive: -2.38% |
| CCOC(=O)c1cnn(-c2cccc(Cl)c2)c1C1CCN(C(=O)OC(C)(C)C)CC1 | inactive: -21.7% |
| CSc1nc2sc3c(c2c(=O)n1-c1ccc(C)cc1)CCCC3 | inactive: -7.11% |
| COc1ccc(Cl)cc1NC(=O)N1CCC2(CC1)Oc1ccccc1C(=O)N2Cc1ccc(F)cc1 | inactive: -9.45% |
| CC1CCc2c(sc3nnn(CC(=O)Nc4ccccc4Cl)c(=O)c23)C1 (centres undefined) | inactive: 9.59% |
| Fc1ccc(NCc2nc3ccccc3n2CCOc2ccccc2Cl)cc1 | inactive: -4.41% |
| Cc1ccc(CNS(=O)(=O)c2ccc(C(=O)N(C)C)s2)cc1 | inactive: -6.72% |
| CCOc1ccc(NC(=O)Cn2c(=O)n(Cc3ccc4c(c3)OCO4)c(=O)c3ccc(C(=O)NC4CCCCC4)cc32)cc1 | inactive: -7.54% |
| COc1ccc(Nc2c3c(nc4ccccc24)CCC3)cc1Cl | inactive: -14.1% |
| Cc1cccc(NC(=O)Cn2c(=O)n(Cc3ccc4c(c3)OCO4)c(=O)c3oc4ccccc4c32)c1C | inactive: -15.8% |
| Cc1ccc(CN(C(=O)COc2ccccc2Cl)c2ccccn2)o1 | inactive: -8.57% |
| COc1ccc(OC)c(CNC(=O)Nc2cn(CC(C)C)c(=O)c3ccccc23)c1 | inactive: -27.9% |
| CCC(=O)N1c2ccc(S(=O)(=O)CCC(=O)NCc3ccccc3OC)cc2CC1C (centres undefined) | inactive: 6.1% |
| CC(C)(C)C1CCc2c(sc(NC(=O)C3c4ccccc4Oc4ccccc43)c2C(N)=O)C1 (centres undefined) | inactive: -12% |
| CCn1cc(S(=O)(=O)c2cc(C)cc(C)c2)c(=O)c2cc(F)c(N3CCCCC3)cc21 | inactive: -16.4% |

| Structure (SMILES) | activation |
| --- | --- |
| CCCCn1c(CNC(=O)C23CC4CC(CC(C4)C2)C3)nnc1SCC(=O)Nc1ccc(C)cc1 | inactive: 41.2% |
| COCCSc1nc2c([nH]c3ccccc32)c(=O)n1-c1ccc(OC)c(OC)c1 | inactive: -6.11% |
| CC1CCCCN1Cc1c(O)ccc2c(=O)c(-c3ccccc3Cl)c(C(F)(F)F)oc12 (centres undefined) | inactive: -7.86% |
| Cc1ccc(CNC(=O)Nc2cc(C(=O)NCc3cccc(F)c3)ccc2N2CCCC2)cc1 | inactive: -32.8% |
| CC(=O)N1CCc2cc(Br)cc(S(=O)(=O)N3CCC(C(=O)Nc4cccc(C)c4C)CC3)c21 | inactive: -0.521% |
| COC(=O)c1nnn(CC(=O)NC(=O)Nc2ccc(F)cc2)c1C(=O)OC | inactive: 20.9% |
| O=C(Nc1ccc(S(=O)(=O)N2CCC(c3nc4ccccc4s3)CC2)cc1)c1ccccc1 | inactive: 0.592% |
| Cc1ccc(C2CC(=O)Nc3cc4c(cc32)OCCO4)cc1Br (centres undefined) | inactive: -8.13% |
| Fc1ccccc1-c1nc(N2CCN(c3cccc(Cl)c3)CC2)c2ccccc2n1 | inactive: -27.4% |
| CCOc1ccc(CCNC(=O)c2cc(=O)[nH]c3ccc(S(=O)(=O)N4CCCCC4C)cc23)cc1OCC (centres undefined) | inactive: -23.6% |
| Cc1ccc(-c2noc(CCC(=O)N(C)c3ccccc3F)n2)cc1 | inactive: -5.22% |
| CCOC(=O)N1CCC(n2c(=O)[nH]c3cc(Cl)ccc32)CC1 | active: 72.2% |
| CCn1c(=O)c2c(nc3n2CCN3c2ccc(OC)cc2)n(C)c1=O | inactive: -12.1% |
| COCCNC(=O)Cn1ccc2cc(S(=O)(=O)N3CCCCCC3)ccc21 | inactive: 0.386% |
| Cc1ccc([N+](=O)[O-])cc1S(=O)(=O)N(C)C | inactive: 6.08% |
| Cc1ccc(-c2cc(C(=O)N3CCN(S(=O)(=O)c4ccc(Br)cc4)CC3)[nH]n2)c(C)c1 | inactive: -13.4% |
| CC(C)OCCCn1c(=O)c2ccccc2n2c(-c3ccccc3)nnc12 | inactive: 12.1% |
| CC(C)(C)C1CCc2c(sc(NC(=O)c3cccc(Cl)c3)c2C(=O)NCc2ccco2)C1 (centres undefined) | inactive: 15.4% |
| CC(=O)c1ccc(NC(=O)C2CCN(c3nnc(C)c4c(C)n(-c5ccccc5)nc34)CC2)cc1 | inactive: -6.59% |
| CCc1nn2c(=O)cc(COC(=O)Cc3ccccc3)nc2s1 | inactive: -14.5% |
| O=C(Cc1ccccc1)Nc1sc2c(c1C(=O)Nc1cccc(Cl)c1)CCCCC2 | inactive: 29% |

| Structure (SMILES) | activation |
| --- | --- |
| COc1ccc(NCc2cccn2-c2nnc(N3CCCCCC3)s2)cc1 | inactive: 14.4% |
| O=C(NCc1ccco1)c1ccc(Cn2c(SCc3ccccc3)nc3cccnc32)cc1 | inactive: 8.02% |
| COc1cc(OC)c(NC(=O)CCS(=O)(=O)c2ccc3c(c2)oc(=O)n3C)cc1Cl | inactive: 8.16% |
| COc1ccc(NC(=O)CSC2=Nc3ccccc3C3=NC(CC(=O)NCCc4ccccc4)C(=O)N23)cc1 (centres undefined) | inactive: -16.9% |
| CC(C)CCOc1ccc(Cn2c(=O)oc3ccccc32)cc1 | inactive: 29.6% |
| Cc1ccc(S(=O)(=O)c2cn(Cc3ccccc3)c3cc(N4CCCCC4)c(F)cc3c2=O)cc1 | inactive: -5.3% |
| COc1ccc(-c2noc(-c3ccc(N4CCOCC4)c([N+](=O)[O-])c3)n2)cc1 | inactive: -10.2% |
| CCc1ccc(CNC(=O)C2COc3ccc(OC)cc3C2)cc1 (centres undefined) | inactive: 0.887% |
| CN(Cc1ccccc1)C(=O)CSc1nnc(-c2cccc(Cl)c2)o1 | inactive: 16.4% |
| CCOC(=O)c1c(C)sc(-c2c(-c3ccccc3)[nH]c3[nH]c(=O)[nH]c(=O)c23)c1O | inactive: -11.5% |
| CC1=C(C(=O)Nc2ccccc2C)C(c2cccs2)n2nc(SCc3ccccc3)nc2N1 (centres undefined) | inactive: -8.71% |
| CCc1ccc(S(=O)(=O)NCc2ccc3c(c2)CCN3C(=O)c2ccc(C)cc2)cc1 | inactive: -31.1% |
| CCc1ccc(-n2nc(CO)c(C(=O)NCCOC)n2)cc1 | inactive: 8.72% |
| O=C(Cn1ncc2c(Cl)cccc21)NCc1cccc(Cl)c1 | inactive: -9.26% |
| COc1ccc(OC)c(S(=O)(=O)N2CCC(n3c(C)nc4cccnc43)CC2)c1 | active: 64.7% |
| CN(C(=O)CC(=O)Nc1ccc2nc3n(c(=O)c2c1)CCCCC3)c1ccccc1F | inactive: 0.997% |
| CCc1ccc(-n2nc(C)c3c(C(=O)N4CCN(c5ccccc5)CC4)cc(C)nc32)cc1 | inactive: -7.97% |
| CCC(=O)O[C@]1(C(=O)CCl)[C@@H](C)C[C@H]2[C@@H]3CCC4=CC(=O)C=C[C@]4(C)[C@@]3(F)[C@@H](O)C[C@@]21C | inactive: -9.23% |
| COc1ccc(-c2noc(-c3ccc(N4CCCC4)c([N+](=O)[O-])c3)n2)cc1OC | inactive: 10.5% |
| CCOc1cc(C2NC(=O)c3c(sc4c3CCN(C)C4)N2)ccc1OC(=O)c1ccc(Br)cc1 (centres undefined) | inactive: 6.71% |
| CCOc1ccc(CNC(=O)C2CCCN(c3nnc(C)c4c(C)n(-c5ccccc5)nc34)C2)cc1 (centres undefined) | inactive: 1.41% |
